{
  "source": "PubChem BioAssay AID485281",
  "about": "(National Center for Advancing Translational Sciences (NCATS), 2010)",
  "note": "“And” between values parts separate entries of the source, which are not always exact repeats. Equal values may be shown once. Screen size: about 350,000 compounds; about 260 (0.074%) were called active. This list was built around the results that the source calls inconclusive (neither active nor inactive); the mix of calls is not that of the screen. The call rests on the fitted dose curve; in most records, active means well fitted inhibition curve with a large enough effect; inconclusive means small, poorly fitted or top-dose-only effect; inactive means no such curve, though single readings can be large or run the other way. Where the call is inconclusive, the potency comes from a doubtful curve fit. On the % scale 0 is the no-effect control and ±100 the full control effect; potency means the concentration at half of the fitted maximal effect; tags describe the fitted curve by direction and shape.",
  "data": [
    {"molecular_target": "Ferritin light chain (Equus caballus) (UniProt P02791)", "sequence (P02791 whole entry, looked up)": "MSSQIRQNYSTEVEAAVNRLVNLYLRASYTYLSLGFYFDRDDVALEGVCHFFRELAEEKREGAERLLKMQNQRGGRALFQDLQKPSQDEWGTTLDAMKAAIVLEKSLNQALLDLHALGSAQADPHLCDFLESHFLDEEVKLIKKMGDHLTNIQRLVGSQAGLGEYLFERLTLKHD", "assay": "qHTS Assay for Identification of Novel General Anesthetics; further: nearly all actives have a fitted effect of over 20% in size", "details": "apoferritin/1-aminoanthracene competitive binding, fluorescence; activity change, negative = displacement: at 77.5 µM (top of the series)", "method_in_brief": "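In PBS, apoferritin at 10 uM is loaded with 1-AMA from a 50% saturated solution. After 10 min of compound exposure at ambient temperature, reduced 535 nm fluorescence indicates probe displacement.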", "values": [
      {"smiles": "O=C(O)CC(=O)NC12CC3CC(CC(C3)C1)C2", "Potency": "inconclusive: 31.6 µM [inhibitor, partial curve] and inconclusive: 28.2 µM [inhibitor, partial curve]"},
      {"smiles": "CCOC(=O)c1c(CN2CCN(c3ccccc3)CC2)oc2ccc(O)cc12", "activity change, negative = displacement": "inactive: -0.645%"},
      {"smiles": "CCc1ccc(S(=O)(=O)c2cnc3ccc(OC)cc3c2N2CCCC(C)C2)cc1", "note": "(stereo not given)", "Potency": "inconclusive: 3.16 µM [inhibitor, full curve]"},
      {"smiles": "Cc1c(Cl)ccc2c1NC(=O)[C@]21[C@@H]2C(=O)N(Cc3ccccc3)C(=O)[C@@H]2[C@@H]2CCCN21", "Potency": "inconclusive: 11.2 µM [inhibitor, partial curve]"},
      {"smiles": "Cc1noc(/C=C/c2ccc(-c3ccccc3Cl)o2)c1[N+](=O)[O-]", "activity change, negative = displacement": "inactive: -5.74%"},
      {"smiles": "Cc1cc(Cl)ccc1C(=O)C1CCCN(C(=O)c2cnsn2)C1", "note": "(stereo not given)", "Potency": "inconclusive: 35.5 µM [inhibitor, partial curve]"},
      {"smiles": "CC1(C)[C@@H](O)CC[C@]2(C)C3C(O)C=C4[C@H]5C[C@@](C)(CO)CC[C@]5(C)CC[C@]4(C)[C@]3(C)CC[C@@H]12", "note": "(stereo not given in full)", "activity change, negative = displacement": "inactive: -19.3%"},
      {"smiles": "CC(C)(C)OC(=O)N[C@@H](Cc1ccccc1)c1nnc(S(=O)(=O)Cc2ccccc2)o1", "Potency": "inconclusive: 31.6 µM [inhibitor, partial curve]"},
      {"smiles": "COc1ccc2[nH]c(=O)c(CN(Cc3ccco3)Cc3nnnn3Cc3ccccc3)cc2c1", "activity change, negative = displacement": "inactive: 81.1%"},
      {"smiles": "COc1ccc(OC)c(C2=Nn3c(nnc3-c3cc(OC)c(OC)c(OC)c3)SC2)c1", "Potency": "inconclusive: 31.6 µM [inhibitor, partial curve]"},
      {"smiles": "S=C(NCc1ccco1)Nc1cc(-c2ccccc2)[nH]n1", "Potency": "inconclusive: 28.2 µM [inhibitor, partial curve]"},
      {"smiles": "O=Cc1ccc(-c2ccc([N+](=O)[O-])cc2Cl)o1", "Potency": "inconclusive: 10 µM [inhibitor, partial curve]"},
      {"smiles": "CCn1cc(C(=O)N[C@H](C)c2ccccc2)c(=O)c2cc(F)c(N3CCN(C)CC3)cc21", "Potency": "inconclusive: 22.4 µM [inhibitor, partial curve]"},
      {"smiles": "COc1ccc(-c2nnc(SCC(=O)c3cccs3)o2)c(OC)c1", "Potency": "inconclusive: 22.4 µM [inhibitor, partial curve]"},
      {"smiles": "Cc1cc(C)cc(NC(=O)Cn2nnc(C(=O)NCc3ccccc3Cl)c2N)c1", "Potency": "inconclusive: 3.55 µM [inhibitor, full curve]"},
      {"smiles": "CC(C)c1cc(C(=O)NC(C)c2ccccc2)no1", "note": "(stereo not given)", "Potency": "inconclusive: 17.8 µM [inhibitor, partial curve]"},
      {"smiles": "CCN(Cc1ccccc1)C(=O)c1cc2c(=O)oc3ccc(C)cc3c2s1", "Potency": "inconclusive: 44.7 µM [inhibitor, partial curve] and inconclusive: 15.8 µM [inhibitor, partial curve]"},
      {"smiles": "C/C(=N/NS(=O)(=O)c1ccc(C)cc1C)c1c[nH]c2ccccc12", "Potency": "inconclusive: 31.6 µM [inhibitor, partial curve]"},
      {"smiles": "O=C(Oc1ccccc1-c1nnco1)c1ccccc1", "Potency": "inconclusive: 25.1 µM [inhibitor, partial curve]"},
      {"smiles": "CC(C)c1ccc(N2CCN(C(=O)c3ccccc3NC(=O)/C=C\\C(=O)O)CC2)cc1", "Potency": "inconclusive: 35.5 µM [inhibitor, single point]"},
      {"smiles": "CC(=O)NC(=S)Nc1cccc([N+](=O)[O-])c1", "Potency": "inconclusive: 31.6 µM [inhibitor, partial curve]"},
      {"smiles": "O=C(NC(=S)NCc1ccccc1)c1ccc(Br)o1", "Potency": "inconclusive: 35.5 µM [inhibitor, partial curve]"},
      {"smiles": "N#Cc1nc(COc2cccc(Cl)c2)oc1N1CCCC1", "activity change, negative = displacement": "inactive: 36.8%"},
      {"smiles": "CCN(CC)S(=O)(=O)c1ccc(Nc2nc3ccccc3n3nnnc23)cc1", "Potency": "inconclusive: 25.1 µM [inhibitor, partial curve]"},
      {"smiles": "N#Cc1c2nc3ccccc3nc2n2cc(NC(=O)c3ccc(F)cc3)ccc12", "activity change, negative = displacement": "inactive: 9.94%"},
      {"smiles": "CC(=O)NNC(=O)c1csc(-c2csc(C)n2)n1", "activity change, negative = displacement": "inactive: -7.49%"},
      {"smiles": "CC1CCCCN1CCCNC(=O)c1ccc2c(c1)sc1nc(-c3ccc(F)cc3)cn12", "note": "(stereo not given)", "Potency": "inconclusive: 17.8 µM [inhibitor, partial curve]"},
      {"smiles": "CC(C)(C)c1ccc(/C=C/C(=O)Nc2nncs2)cc1", "activity change, negative = displacement": "inactive: 1.52%"},
      {"smiles": "O=C(COc1ccc(F)cc1F)N1CCCCCCC1", "Potency": "inconclusive: 20 µM [inhibitor, partial curve]"},
      {"smiles": "Cc1nn(-c2ccccc2)c(N)c1Sc1ccccc1[N+](=O)[O-]", "activity change, negative = displacement": "inactive: -15.9%"},
      {"smiles": "CCCN(CCC)S(=O)(=O)c1ccc(NC(=O)COc2ccccc2)cc1", "Potency": "inconclusive: 8.91 µM [inhibitor, full curve, poor fit]"},
      {"smiles": "O=C(Nc1ccc2c(c1)OCCO2)c1cccc(S(=O)(=O)N2CCCCC2)c1", "activity change, negative = displacement": "inactive: -19.6%"},
      {"smiles": "O=C(c1ccc(Cl)cc1)c1ccc(CN2C(=O)c3ccccc3C2=O)o1", "Potency": "inconclusive: 31.6 µM [inhibitor, partial curve]"},
      {"smiles": "COc1ccc(N2CC(C(=O)Nc3ccc(S(=O)(=O)N4CCCCC4)cc3)CC2=O)cc1", "note": "(stereo not given)", "activity change, negative = displacement": "inactive: -18.2%"},
      {"smiles": "O=C(Nc1ccc2c(c1)CCC2)c1cccc(F)c1", "activity change, negative = displacement": "inactive: 1.02%"},
      {"smiles": "Cn1c(=O)c(-c2ccccc2)nc2ccccc21", "activity change, negative = displacement": "inactive: 0.852%"},
      {"smiles": "CCc1nc(OCc2ccco2)c2sc3nc4c(cc3c2n1)COC(C)(C)C4", "Potency": "inconclusive: 35.5 µM [inhibitor, single point]"},
      {"smiles": "CC(C(=O)OCc1nnc(-c2ccccc2)o1)N1C(=O)c2ccccc2C1=O", "note": "(stereo not given)", "Potency": "inconclusive: 39.8 µM [inhibitor, partial curve]"},
      {"smiles": "O=C(Cn1c(-c2cccs2)cc2cc(F)ccc21)NCCCN1CCN(c2ccccc2F)CC1", "activity change, negative = displacement": "inactive: 45.7%"},
      {"smiles": "c1ccc(CNc2ncnc3c2cnn3-c2ccccc2)cc1", "activity change, negative = displacement": "inactive: -9.52%"},
      {"smiles": "Cc1cccc(OCc2nnc(N)s2)c1C", "Potency": "inconclusive: 7.08 µM [inhibitor, full curve]"},
      {"smiles": "Cc1ccc(NS(=O)(=O)c2ccc(NC(=O)[C@@H]3CCCC[C@@H]3C(=O)O)cc2)c(C)c1", "Potency": "inconclusive: 39.8 µM [inhibitor, partial curve]"},
      {"smiles": "O=S(=O)(NC1CC2CCC1C2)c1ccc(Br)s1", "note": "(stereo not given)", "Potency": "inconclusive: 50.1 µM [inhibitor, single point]"},
      {"smiles": "COc1ccc(/C=C/C(=O)c2ccc(OC)cc2OC)cc1", "Potency": "inconclusive: 20 µM [inhibitor, partial curve]"},
      {"smiles": "Cc1ccc2c(c1)sc[n+]2Cc1ccccc1", "Potency": "inconclusive: 31.6 µM [inhibitor, single point]"},
      {"smiles": "Cc1ccc(OCCCOc2cccc3cccnc23)cc1C", "Potency": "inconclusive: 28.2 µM [inhibitor, partial curve]"},
      {"smiles": "COc1ccc(N/N=C/c2c(C(=O)O)ccc3ccccc23)cc1", "activity change, negative = displacement": "inactive: 72.3%"},
      {"smiles": "CC(C)c1ccc(NC(=O)COc2ccccc2)cc1", "Potency": "inconclusive: 31.6 µM [inhibitor, single point]"},
      {"smiles": "CN(Cc1ccccn1)C(=O)c1ccc2nc(Cc3cccc(Cl)c3)oc2c1", "Potency": "inconclusive: 25.1 µM [inhibitor, single point]"},
      {"smiles": "CCCCNC(=O)COC(=O)c1ccc(NS(=O)(=O)c2ccc3c(c2)OCCO3)cc1", "Potency": "inconclusive: 56.2 µM [inhibitor, single point]"},
      {"smiles": "Cc1ccc2oc(C(=O)N(C)Cc3ccon3)c(C)c2c1", "activity change, negative = displacement": "inactive: -10.3%"},
      {"smiles": "O=C(/C(=C/O)N=Nc1ccc(Cl)cc1)c1ccncc1", "Potency": "inconclusive: 15.8 µM [inhibitor, partial curve]"},
      {"smiles": "C/C(=N\\Nc1ccc(C)c(Cl)c1)c1cccnc1", "Potency": "inconclusive: 31.6 µM [inhibitor, single point]"},
      {"smiles": "c1ccc(CCc2nn3c(C4COc5ccccc5O4)nnc3s2)cc1", "note": "(stereo not given)", "Potency": "inconclusive: 56.2 µM [inhibitor, single point]"},
      {"smiles": "O=c1cc(C(F)(F)F)[nH]c2c(C(F)(F)F)cccc12", "activity change, negative = displacement": "inactive: 2.59%"},
      {"smiles": "CCNC(=S)N(Cc1c(C)noc1C)c1ccccc1", "activity change, negative = displacement": "inactive: 0.388%"},
      {"smiles": "Cc1nnc(SCCC(=O)Nc2nc(-c3ccccc3)ns2)s1", "activity change, negative = displacement": "inactive: -16.9%"},
      {"smiles": "Nc1nnc(CCCCCCCCCCc2nnc(N)s2)s1", "Potency": "inconclusive: 4.47 µM [inhibitor, full curve]"},
      {"smiles": "COc1ccc(NC2CCCN(C(=O)CSc3ccccc3)C2)cc1", "note": "(stereo not given)", "Potency": "inconclusive: 28.2 µM [inhibitor, partial curve]"},
      {"smiles": "CC(C)(C)CC(C)(C)NC(=O)c1ccccc1", "Potency": "inconclusive: 17.8 µM [inhibitor, partial curve]"},
      {"smiles": "COc1cccc(NC(=O)C2CC(=O)N(C)C(=Nc3cccc(F)c3)S2)c1", "note": "(stereo not given)", "Potency": "inconclusive: 17.8 µM [inhibitor, partial curve]"},
      {"smiles": "O=c1oc(-c2ccco2)nc2c1cnn2-c1ccccc1", "activity change, negative = displacement": "inactive: -14.7%"},
      {"smiles": "CCCN1C(=O)/C(=C/c2ccc(N3CCOCC3)cc2)NC1=S", "Potency": "inconclusive: 28.2 µM [inhibitor, partial curve]"},
      {"smiles": "NCCOc1ccc(C2CCCCC2)cc1", "Potency": "inconclusive: 5.62 µM [inhibitor, full curve]"},
      {"smiles": "OC(COCCC12CC3CC(CC(C3)C1)C2)CN1CCCC1", "note": "(stereo not given)", "Potency": "inconclusive: 28.2 µM [inhibitor, partial curve]"},
      {"smiles": "CSc1ncc(Cl)c(C(=O)Nc2ccc(S(=O)(=O)N3CCOCC3)cc2)n1", "Potency": "inconclusive: 31.6 µM [inhibitor, partial curve]"},
      {"smiles": "CC(C)(C)c1ccc(OCC(=O)NCc2ccco2)c(Br)c1", "Potency": "inconclusive: 20 µM [inhibitor, single point]"},
      {"smiles": "CC1(C)OC(=O)C(=CNCC(O)c2ccccc2)C(=O)O1", "note": "(stereo not given)", "Potency": "inconclusive: 0.0079 µM [inhibitor, full curve, poor fit]"},
      {"smiles": "N#CCSc1nnc(-c2c[nH]c3ccccc23)o1", "Potency": "inconclusive: 28.2 µM [inhibitor, single point]"},
      {"smiles": "COc1cccc(C(=O)Oc2ccc3ccc(O)cc3c2)c1", "Potency": "inconclusive: 17.8 µM [inhibitor, partial curve]"}
    ]}
  ]
}
